Source: the supplement of paper PMC3334620
The full ranking holds about 33,000 sequences; the median of “E-score (-0.5 to 0.5)” is about -0.043, and the highest 2% start at about 0.37. Some of the results follow.

Target: T1, Upc2 (UniProt Q12151)
T1 sequence: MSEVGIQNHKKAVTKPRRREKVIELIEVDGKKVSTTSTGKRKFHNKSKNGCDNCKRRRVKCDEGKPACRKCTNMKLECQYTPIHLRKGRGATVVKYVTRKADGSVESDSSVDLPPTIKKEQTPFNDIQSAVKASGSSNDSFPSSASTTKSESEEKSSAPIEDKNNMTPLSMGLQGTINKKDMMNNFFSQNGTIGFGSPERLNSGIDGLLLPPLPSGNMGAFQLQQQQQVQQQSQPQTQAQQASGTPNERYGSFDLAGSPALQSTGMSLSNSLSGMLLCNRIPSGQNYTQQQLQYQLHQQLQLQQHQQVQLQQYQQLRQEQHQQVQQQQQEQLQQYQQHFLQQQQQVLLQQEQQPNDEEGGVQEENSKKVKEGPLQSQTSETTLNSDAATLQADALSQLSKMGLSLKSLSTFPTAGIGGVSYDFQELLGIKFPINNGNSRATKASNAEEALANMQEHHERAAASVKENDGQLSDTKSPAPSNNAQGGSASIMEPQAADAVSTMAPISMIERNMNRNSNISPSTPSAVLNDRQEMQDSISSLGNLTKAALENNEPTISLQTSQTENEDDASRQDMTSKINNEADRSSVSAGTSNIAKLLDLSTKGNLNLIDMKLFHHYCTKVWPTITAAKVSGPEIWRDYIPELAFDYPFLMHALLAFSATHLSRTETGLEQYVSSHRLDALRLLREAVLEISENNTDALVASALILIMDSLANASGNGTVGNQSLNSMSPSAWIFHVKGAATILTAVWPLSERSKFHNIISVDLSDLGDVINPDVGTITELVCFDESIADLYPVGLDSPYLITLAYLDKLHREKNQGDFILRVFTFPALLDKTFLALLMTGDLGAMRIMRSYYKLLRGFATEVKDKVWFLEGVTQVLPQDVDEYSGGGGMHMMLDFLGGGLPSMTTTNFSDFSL
Assay: PBM E-score (8-mer binding enrichment) (E-score (-0.5 to 0.5)); higher = stronger / more preferred TF binding; most listed sequences are background and not binding sites
Details: protein concentration: 200 nM; construct: GST-full length
Description: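 Universal 'all 10-mer' protein binding microarrays (Agilent AMADID 015681) probed with GST-tagged S. cerevisiae TFs (full-length or DBD) made by in vitro transcription/translation (PURExpress), about 100-200 nM. Bound TF was detected with fluorescent anti-GST. Each ungapped 8-mer (which stands for itself and its reverse complement) is scored by the PBM enrichment score (E-score), a modified Wilcoxon-Mann-Whitney statistic from -0.5 to +0.5, computed with the Universal PBM Analysis Suite. Scale: above 0.35 generally sequence-specific binding.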

Sequence	PBM E-score
TATTCGAA	0.221
GTACGCAC	0.322
GAGTCCAA	-0.186
CCATCGTC	-0.0745
CACTGGTA	-0.0389
GGTACACC	0.0641
AATAGAAT	-0.00962
ATCACTAG	-0.078
AGCAGGCT	-0.287
CCAGAACG	0.275
ACCGGTCA	0.0537
ATCGCCCG	0.0502
CTTACATC	0.0953
GAGACGGA	-0.233
TACCGTGA	-0.035
ACTGTCAA	-0.0815
CTTGAGTC	-0.0451
ATAGAGCG	-0.0755
ATGGTGCA	-0.0485
CTGACTTA	-0.0443
ACTTCTCT	-0.035
AATTGCCC	-0.148
ACGTTTTG	-0.0436
CGCGGTTA	-0.0473
GGCGAGCA	-0.0402

Sequence	PBM E-score
GTCTAAAA	0.0594
CCGGTGAG	-0.221
GGATTGCA	-0.224
AAAGGTGA	-0.0702
GGGAGATA	-0.196
CCGATCGC	0.0725
AGAGAATC	-0.188
CGAACACA	0.168
TCATCGAA	-0.0529
AGTATGAT	-0.0278
GCCCGCGC	-0.155
AATCGTCA	0.0304
CAGGCAGG	-0.187
ACCGTAGG	-0.135
CACCCCTG	-0.408
AATCGTGA	-0.165
CGGCGACG	-0.0206
CGCGTTAA	0.218
CCTATCCG	0.165
AGAAAAGG	-0.259
GATGATAC	0.0998
TACATACA	0.162
ATAAACGG	0.434
GCTAATAA	0.16
CACGTCGG	0.129

Sequence	PBM E-score
CAATCGGA	-0.0741
CCTGTACG	0.436
AGTGTCGG	-0.0914
ATAAAAGC	-0.0242
AGTGGTTC	-0.0177
TTACCAAA	-0.0507
GATGAGGC	-0.277
ACGTCAGT	-0.0862
GACGTATA	0.424
CACGCCAA	-0.00227
AGGGTCAA	-0.0702
CCAGCAGC	-0.28
ATAAGTTA	0.0405
GGTAATAC	0.0537
AGCCCTTA	-0.0389
GTCGTAAC	0.408
ACCGATAA	0.158
GAAGCGCA	0.0636
GCCTCTAC	-0.162
CCTTGCCA	-0.151
ATACTAAG	0.00764
GAATTCCC	-0.0191
CCGAGAAA	0.188
ATGCTGCC	-0.137
ACTAGCAG	-0.0997

Sequence	PBM E-score
CTGTAGTC	0.0304
AGCTCTAC	-0.187
CGCGTGCA	-0.144
CGAATCAA	0.146
CTCAGTCC	-0.119
CAACCATA	-0.025
ATGCATAG	-0.199
CGCTAAGA	0.226
GCGTAAGC	0.195
CCGTGTAG	0.0505
CAGCTATA	0.0617
ATCGGCCA	-0.112
ACCAGCCA	-0.25
CACGTACC	0.188
GACGACGC	0.0643
CGTGTCAC	0.0221
CCTTATTA	0.00112
AAGGCATT	-0.274
AAAGGTGT	0.0174
CAGGACTC	-0.0969
CCCCAGAG	-0.261
ACCCACTC	-0.193
AATTGACT	-0.161
AGCGGTCG	-0.0043
ATGTTCTA	0.00632

Sequence	PBM E-score
AAACTTGC	0.117
ACCTCCCA	-0.176
ATACGTCA	0.278
AGAGCAGC	-0.163
TCCATTCA	-0.0632
CAACTCGG	-0.112
GACTGACC	-0.0564
ACCCACAA	-0.045
CAAGTTTC	0.0271
ACCATGCT	0.0936
CTAGCTGC	-0.235
GACCAATA	-0.0983
AGTGCCAT	-0.133
GCACTAGC	-0.0308
CCGCCCTC	-0.0106
GGCTGCTA	-0.0267
CCGTCGGA	0.0146
AGTCCGAA	-0.0353
ATAGTTGG	-0.011
CCCAAGGG	-0.25
GTGACGAA	-0.0408
ACCGGGAC	-0.198
AATAAGAG	0.0887
AGGAGTAC	0.0231
AATTTTAT	-0.038

Sequence	PBM E-score
CACCATTC	-0.231
ACCAATGA	-0.106
ATTCAAAC	0.0935
ACGGGAGA	0.0541
ACAGGTTA	-0.066
CCCAACCA	0.0293
AGTAGTCG	0.198
TGCGTAAA	0.294
TATGCTCA	-0.123
ATGTCCAA	-0.0286
CCTTGCAA	-0.115
GCTGTGAA	-0.0401
AGCCCCAG	-0.129
AATGAGCA	-0.149
GCGAAGAC	-0.0814
CGTTCTTC	0.225
GAAAACCC	-0.0313
GTTCACCA	0.101
AATTCATC	-0.0871
GCCGAAGC	-0.115
AGGTGCCG	-0.137
CCGTAGAG	0.216
CGCTAAAC	0.345
CAGTAAGC	-0.103
ATGCCCAG	-0.329

Sequence	PBM E-score
CGGGCATC	0.0742
GATAATAA	-0.00643
CGGAAGTA	0.0369
CCCCACCG	0.0968
GATATTGC	0.00035
AGTTCGTG	0.158
CGTTGCTA	0.0827
CTTAACGA	0.464
CGTGTTGA	-0.027
AGCTATCG	0.0416
CCAGCCAA	-0.107
AGCTCACT	-0.138
GTCAGGCA	-0.192
ACAAAGAG	-0.214
CAGTCGGC	-0.152
ATCTACGG	-0.0234
CGGATACG	0.408
CGCGGCAA	0.0872
CCTCGTAG	0.389
GTACTTGA	0.0766
ACTACATG	-0.0312
ATTTCATA	0.00209
